# Data taken from PubChem BioAssay AID894 (National Center for Advancing Translational Sciences (NCATS), 2007).
# The campaign covered roughly 150,000 compounds. About 6,500 (4.3%) were called active. Inconclusive results, whose numbers are uncertain, are shown with a selection of clear calls. Calls come from the whole dose curve; as a rule, active = well fitted inhibition curve with a large enough effect (not every such curve was filed as active); inconclusive = small, poorly fitted or top-dose-only effect, or another doubt; inactive = no such curve, though single readings can be large or run the other way. Potencies of inconclusive entries are left out as doubtful fits.
# Target: 15-hydroxyprostaglandin dehydrogenase [NAD(+)] (Homo sapiens) (UniProt P15428)
# Test: qHTS Assay for Inhibitors of HPGD (15-Hydroxyprostaglandin Dehydrogenase)
# Settings: purified HPGD, NADH fluorescence kinetic, PGE2 substrate; activity change, negative = inhibition: hits give low values
# Outline: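 NADH formation kinetics: reaction with 30 uM PGE2 and 1 mM NAD+ (final), 20 nM enzyme, Tris-HCl pH 8 with Tween 20, after 15 min compound preincubation at room temperature. Fluorescence change, last versus first of five reads.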
# % is set by controls: 0 for no effect and ±100 for the full control effect; potency is the fitted concentration of half-maximal effect; tags give direction and shape of the fitted curve.
# Sequence of UniProt P15428 (P15428 whole entry, looked up): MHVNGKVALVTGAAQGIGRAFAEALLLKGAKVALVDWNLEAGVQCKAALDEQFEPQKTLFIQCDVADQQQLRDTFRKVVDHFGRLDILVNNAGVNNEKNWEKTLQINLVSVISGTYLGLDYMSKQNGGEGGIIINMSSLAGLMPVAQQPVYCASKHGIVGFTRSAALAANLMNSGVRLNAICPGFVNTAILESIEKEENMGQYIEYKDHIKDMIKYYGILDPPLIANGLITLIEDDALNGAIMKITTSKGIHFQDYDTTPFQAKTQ
SMILES,Potency,"activity change, negative = inhibition"
C=CCSc1nc(-c2ccccc2)c(C#N)c(=O)[nH]1,"inconclusive [inhibitor, partial curve]",
Cc1csc(-c2cnn(-c3ccccc3)c2NC(=O)c2ccc(C(F)(F)F)cc2)n1,"inconclusive [inhibitor, single point]",
CN(Cc1ccccc1)C(=O)COC(=O)c1cc(-c2ccc(Cl)s2)nc2ccccc12,"inconclusive [inhibitor, partial curve]",
COc1ccc(Cc2nc3ccc(S(N)(=O)=O)cc3[nH]2)cc1OC,"inconclusive [inhibitor, partial curve, poor fit]",
COc1cc2c(cc1OC)CN(C(=O)NS(=O)(=O)c1ccc(C)cc1)CC2,"inconclusive [inhibitor, partial curve]",
Cc1nc(NC(=O)/C=C/c2ccc(Cl)cc2Cl)sc1C(=O)N(C)C,"inconclusive [inhibitor, partial curve]",
CC1(C)CC(=O)C=C(OC(=O)c2ccc(Cl)cc2)C1,active: 14.1 µM,
CCCC(=O)Nc1cc(-c2nc3ncccc3o2)ccc1C,"inconclusive [inhibitor, partial curve]",
COc1ccc(-c2cc(=NC(CC(C)C)C(=O)O)c3cc(C)ccc3o2)cc1 (stereo not drawn),"inconclusive [inhibitor, partial curve]",
COc1ccc(OC)c(NC(=O)c2c(NC(=O)CNCc3ccco3)sc3c2CCC3)c1,"inconclusive [inhibitor, partial curve]",
CC(C)C[C@@H](NC(=O)[C@@H](O)[C@H](N)Cc1ccccc1)C(=O)O,,inactive: -6.24%
COc1ccc(NC(=O)CN2CCCCC2)c([N+](=O)[O-])c1,,inactive: -12.4%
O=[N+]([O-])c1cccc(/C=N/n2c(-c3cccnc3)n[nH]c2=S)c1,active: 20 µM,
Cc1ccc(-c2cc(-c3nnc(SCC(=O)N(C)CCC#N)n3N)c3ccccc3n2)cc1,"inconclusive [inhibitor, partial curve]",
COc1ccc(N(C)C(=O)c2cnc(N3CCN(c4ncccn4)CC3)c3ccccc23)cc1,active: 28.2 µM,
CCN(CC)c1ccc2c(c1)oc(=O)c1c(Cl)cc(=O)oc12,active: 5.62 µM,
Cc1ccc(NC(=O)c2c(C)nn(-c3ccccc3)c2Cl)c(C)c1,active: 14.1 µM,
CC1CCN(C(=O)c2scc3c2OCCO3)CC1,active: 15.8 µM,
CC(C)C(=O)NC(=O)[C@@H]1CCCN1C(=O)/C=C/c1ccccc1,,inactive: -5.48%
OCC(CBr)(CBr)CBr,,inactive: -8.96%
Cc1nc2oc3ccccc3c(=O)c2c(=O)n1Cc1ccccc1,"inconclusive [inhibitor, partial curve, poor fit]",
Cc1ccc(C2(c3ccc(C)cc3)CC2C(=O)Nc2ccc([N+](=O)[O-])cc2O)cc1 (stereo not drawn),active: 14.1 µM,
Cc1cc(NC(=O)c2ccccc2)ncc1NC(=O)c1ccco1,"inconclusive [inhibitor, single point]",
Fc1ccc(-c2ccc(/C=N\n3cnnc3)o2)cc1Cl,"inconclusive [inhibitor, single point]",
CCOC(=O)c1[nH]c2ccccc2c1NC(=O)CC(C)(C)C,"inconclusive [inhibitor, partial curve, poor fit]",

SMILES,Potency,"activity change, negative = inhibition"
Cc1ccccc1OCC(=O)Nc1cccc(N(C)S(C)(=O)=O)c1,,inactive: -11%
CCOc1ccc2nc(NC(=S)NCc3ccccc3)sc2c1,"inconclusive [inhibitor, single point]",
C/C(N)=C(/C#N)C(=O)COC(=O)c1cc(-c2cccc3ccccc23)nc2ccccc12,"inconclusive [inhibitor, partial curve]",
CC(=O)NCCCNc1ccc([N+](=O)[O-])cc1,,inactive: -15.5%
CC1CCCC(C)N1C(=O)Cn1cc(/C=C2/C(=O)Nc3ccccc32)c2ccccc21 (stereo not drawn),,inactive: -10.4%
COc1ccc2c(c1)OC(=O)CC2c1ccccc1C (stereo not drawn),,inactive: -6.96%
COc1ccc(C(=S)NCS(=O)(=O)c2ccc(C)cc2)cc1,active: 25.1 µM,
Cc1cc(NS(=O)(=O)c2ccccc2)c(C)c(Cl)c1O,,inactive: -16.9%
CCCN1C2CCCC1CC(NC(=O)c1ccccc1)C2 (stereo not drawn),"inconclusive [inhibitor, single point]",
Cn1cccc1Cc1nnc(SCC(=O)Nc2cccc(F)c2)n1-c1ccc(F)cc1,,inactive: -2.31%
COc1ccc(CSCC(=O)N/N=C/c2ccc(OCC(=O)NCc3ccco3)cc2)cc1,"inconclusive [inhibitor, partial curve]",
Cc1ccc(-c2nnn(CC(=O)N(CC(=O)NCC3CCCO3)c3ccccc3)n2)o1 (stereo not drawn),"inconclusive [inhibitor, single point]",
CCOc1ccc(N2Nc3n[nH]c(N)c3N2)cc1,,inactive: -0.742%
Cc1ccc(NC(=S)NCc2cccs2)cc1,active: 28.2 µM,
COc1ccc(-c2cc(C(=O)NC(C(=O)O)C(C)C)c(C)o2)cc1OC (stereo not drawn),"inconclusive [inhibitor, partial curve]",
CSC1=N/C(=C\c2c(F)cccc2Cl)C(=O)S1,active: 4.47 µM,
O=C(c1ccccc1F)N1CCN(c2ccc([N+](=O)[O-])c3ncccc23)CC1,,inactive: 0.0616%
CCN1CCN(c2nc3ccccc3nc2C(C#N)C(=O)OC2CCCCC2)CC1 (stereo not drawn),,inactive: -8.04%
Cc1cccc(NC(=S)Nc2ccc(N3CCOCC3)cc2)c1C,"inconclusive [inhibitor, single point]",
COc1ccc(NS(=O)(=O)c2ccc(N3CCCC3)c(NC(=S)Nc3cccc(C)c3C)c2)cc1,active: 12.6 µM,
Cc1cccc(C2Nc3ccccc3C(=O)N2CCc2ccccc2)n1 (stereo not drawn),"inconclusive [inhibitor, partial curve]",
COc1cc(OC)c2c(-c3cccc(-c4sccc4C(C)=O)c3)cc(=O)oc2c1,"inconclusive [inhibitor, single point]",
Cc1ccc(C(=O)c2cc3ccccc3o2)cc1C,"inconclusive [inhibitor, partial curve]",
O=C1N/C(=N/Nc2ccccc2)S/C1=C\c1ccccc1,active: 10 µM,
CCCC(=O)Nc1ccc2c(c1)C(=O)NC2=O,"inconclusive [inhibitor, partial curve]",

SMILES,Potency,"activity change, negative = inhibition"
COC(=O)c1ccc(N2CCOCC2)c(F)c1,,inactive: -1.86%
CC1=C(C(=O)Nc2ccccc2)C(c2ccco2)C(C#N)=C(SCC(=O)Nc2cccc(C)c2C)N1 (stereo not drawn),"inconclusive [inhibitor, partial curve]",
CCOC(=O)c1c(C)nc2ncccn12,"inconclusive [inhibitor, partial curve]",
COc1ccc(/C=N/NC(=O)c2ccccc2F)cc1CN1CCN(c2ccc(F)cc2)CC1,"inconclusive [inhibitor, single point]",
CNS(=O)(=O)c1cccc(C(=O)OCc2cc(=O)n3cc(Br)ccc3n2)c1,"inconclusive [inhibitor, partial curve]",
Cc1cccc(CNc2ncnc3ccc(-c4cccc(NS(C)(=O)=O)c4)cc23)c1,"inconclusive [inhibitor, partial curve]",
COc1ccc(CCNC(=S)NC(=O)c2ccccc2)cc1OC,active: 25.1 µM,
Cc1cccc2c1N(C(=O)CN1C(=O)c3ccccc3C1=O)C(C)(C)c1ssc(=S)c1-2,"inconclusive [inhibitor, partial curve]",
C=CCOc1c2ccc(C(=O)N(CC)c3ccc(OC)cc3)cc2nn1C,"inconclusive [inhibitor, partial curve]",
Fc1cccc(C2NC(=S)NC3=C2N2CCC3CC2)c1 (stereo not drawn),,inactive: -3.59%
CCCCc1c(O)nc2sc3cc(OC)ccc3n2c1=O,active: 15.8 µM,
Cc1occc1C(=O)NNC(=O)COc1ccc(Br)cc1Br,,inactive: -0.949%
O=C(CNS(=O)(=O)c1c(Cl)cccc1Cl)OCC(=O)N1CCN(c2ccccc2)CC1,,inactive: -6.55%
O=C(O)[C@H]1CCCC[C@@H]1C(=O)Nc1nc2ccccc2[nH]1,,inactive: -7.14%
CC(C)(C)N1CC2([N+](=O)[O-])CN(C(C)(C)C)CC([N+](=O)[O-])(C1)C2,,inactive: -10.1%
Cc1cc(NC(=O)c2ccc(Cl)cc2)no1,,inactive: -3.48%
COc1ccccc1CCn1c(N)c(C#N)c2nc3ccccc3nc21,"inconclusive [inhibitor, partial curve]",
CCOC(=O)c1c(NC(=O)C2=C(C)NC(=S)NC2c2ccccc2C(F)(F)F)sc(C)c1C (stereo not drawn),"inconclusive [inhibitor, partial curve]",
FC(F)(F)c1ccc(CSc2nccn2-c2ccccc2)cc1,,inactive: -2.16%
COc1ccc2c(c1)CCC1[C@@H]2CCC2(C)[C@@H](NCCCCCCN3C(=O)C=CC3=O)CC[C@@H]12 (stereo partly drawn),,inactive: -4.76%
CCOc1cccc(C(=O)NC(=S)Nc2ccc(N3CCCC3)cc2)c1,,inactive: -6%
COc1cccc(/C=N/NC(=O)c2ccc(CN3c4cccc5cccc(c45)S3(=O)=O)cc2)c1,"inconclusive [inhibitor, partial curve]",
Cc1ccc(P(C)(=O)c2ccc(C)cc2)cc1,"inconclusive [inhibitor, single point]",
